# Molecular target: T1, Prostaglandin G/H synthase 2 (Homo sapiens, UniProt P35354)
# T1 sequence (P35354 whole entry): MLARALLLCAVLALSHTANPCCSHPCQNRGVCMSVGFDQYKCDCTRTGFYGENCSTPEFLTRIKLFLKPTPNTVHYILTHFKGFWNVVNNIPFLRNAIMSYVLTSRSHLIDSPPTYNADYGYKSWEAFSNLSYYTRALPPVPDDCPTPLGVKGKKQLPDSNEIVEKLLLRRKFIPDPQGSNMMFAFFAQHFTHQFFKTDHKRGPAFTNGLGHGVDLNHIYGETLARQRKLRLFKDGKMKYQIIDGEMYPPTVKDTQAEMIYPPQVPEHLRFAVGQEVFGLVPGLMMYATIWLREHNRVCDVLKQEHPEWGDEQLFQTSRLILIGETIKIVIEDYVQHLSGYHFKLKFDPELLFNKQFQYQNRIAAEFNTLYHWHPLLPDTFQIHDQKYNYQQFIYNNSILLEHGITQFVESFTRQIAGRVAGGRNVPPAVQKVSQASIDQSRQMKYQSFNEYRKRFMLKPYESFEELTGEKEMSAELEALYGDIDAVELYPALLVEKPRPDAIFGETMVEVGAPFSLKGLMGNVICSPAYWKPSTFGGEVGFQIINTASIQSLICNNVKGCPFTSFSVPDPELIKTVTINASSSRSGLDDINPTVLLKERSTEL
row,Structure (SMILES),IC50 [µM]
1,CS(=O)(=O)c1cccc(-n2cccc2-c2ccc(F)cc2)c1,> 100
2,Cc1ccc(-c2ccc(S(C)(=O)=O)cc2)n1Cc1ccc(F)cc1,> 100
3,Cc1ccc(-c2ccc(F)cc2)n1-c1ccc(S(C)(=O)=O)cc1,> 100
4,CCCCn1c(C)ccc1-c1ccc(S(C)(=O)=O)cc1,> 100
5,CS(=O)(=O)c1ccc(-c2ccc(CCC(=O)O)n2-c2ccc(F)cc2)cc1,> 100
6,CNS(=O)(=O)c1ccc(-n2cccc2-c2ccc(F)cc2)cc1,> 100
7,O=S(=O)(c1ccccc1)c1ccc(-n2cccc2-c2ccc(F)cc2)cc1,> 100
8,CCS(=O)(=O)c1ccc(-n2cccc2-c2ccc(F)cc2)cc1,> 100
9,Cc1c(CN(C)C)cc(-c2ccc(S(C)(=O)=O)cc2)n1-c1ccc(F)cc1,100
10,Cc1c(C(Oc2cccc(Cl)c2)C(F)(F)F)cc(-c2ccc(S(C)(=O)=O)cc2)n1-c1ccc(F)cc1 (configuration not stated),> 100
11,COc1ccc(-c2ccc(CCC(=O)O)n2-c2ccc(C(C)=O)cc2)cc1,4.6
12,Cc1c(COc2cccc(Cl)c2)cc(-c2ccc(S(C)(=O)=O)cc2)n1-c1ccc(F)cc1,0.08
13,CN(C)S(=O)(=O)c1ccc(-n2c(CCC(=O)O)ccc2-c2ccc(F)cc2)cc1,7.5
14,Cc1ccc(-c2ccc(S(C)(=O)=O)cc2)n1C(C)C,> 100
15,Cc1ccc(-c2ccc(S(C)(=O)=O)cc2)[nH]1,> 100
16,Cc1c(COc2ccc(Cl)cc2)cc(-c2ccc(S(C)(=O)=O)cc2)n1-c1ccc(F)cc1,0.03
17,CCc1ccc(-c2ccc(S(C)(=O)=O)cc2)n1-c1ccc(F)cc1,> 100
18,Cc1c(S(=O)(=O)C(F)(F)F)cc(-c2ccc(S(C)(=O)=O)cc2)n1-c1ccc(F)cc1,0.06
19,CS(=O)(=O)c1ccc(-n2cccc2-c2ccc(F)cc2)cc1Cl,> 100
20,CN(C)S(=O)(=O)c1ccc(-n2cccc2-c2ccc(F)cc2)cc1,> 100
21,CS(=O)(=O)c1ccc(-c2ccc(C(F)(F)F)n2-c2ccc(F)cc2)cc1,> 100

# Molecular target: T1, Prostaglandin G/H synthase 2
# Remark: another data set of the same source
row,Structure (SMILES),IC50 [µM]
1,COc1ccc(-c2ccc(CCC(=O)O)n2-c2ccc(C(C)=O)cc2)cc1,2.4
